The text below walks through data of the supplement of paper PMC11417369.

± gives the standard deviation of the averaged measurements. The list shows a part of the results.

For this assay, the system named is PfAP2-EXP AP2 domain (GST-tagged). As to the kind of experiment: gcPBM binding intensity (ln(normalized median fluorescence intensity)); higher = stronger DNA binding. A digest of the protocol: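 Plasmodium falciparum DNA-binding domains carrying a GST tag were expressed in E. coli and applied for 1 h, at about 25 μg on average, to an Agilent 4 × 180k array. The array held primer-extended double-stranded 36-bp intergenic genomic probes together with negative controls, and binding took place in 1× PBS with 1% milk, 0.2 mg/ml BSA, 0.5% salmon testes DNA and 0.03% Triton X-100. An Alexa488 anti-GST antibody detected bound protein, and the array was scanned at 488 nm. Binding intensity is taken as the highest Masliner-normalised natural-log median intensity across replicate spots of either probe orientation.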
Regarding “ATCATTTCTATATAAGCACACACGTGGAATTTTTTT [CACACA_site2786]”, the “gcPBM binding intensity (ln)” value was 8.95 ± 0.4.
Consider “TTTCTTTAACAAGTTAAACACACATACATATATACA [CACACA_site8810]”, for which the “gcPBM binding intensity (ln)” value amounted to 8.58 ± 0.49.
Then “AAAATAAATATATTATCCACGTTGTATATATATATA [XGTACX_negctrl_site136]”, with 9.93 ± 0.34; and TTACTTATATGCATAGTGCAAATTTGGTAAATATCT, with 8.93 ± 0.33.
Regarding “CACATACAGATATATACACACAAATATAAATACACA [CACACA_site6512]”, the “gcPBM binding intensity (ln)” value is 8.64 ± 0.49.
As to “AATAAATATAAAAATGCACACACACTAATAAAAAAA [CACACA_site8201]”, the “gcPBM binding intensity (ln)” value turned out to be 8.92 ± 0.4.
Then “AACTTGTATTTATACACACACACACTAGCTTTTTTT [CACACA_site5132]”, with 8.71 ± 0.59; and “AGAATTAAAAACAGTTGTACAAAAAGTTGTATAAAT [XGTACX_site411]”, with 8.66 ± 0.37; and “AGTAATAAATTTTATACATGCATAAAAAAAAAAAAA [TGCATGCA_site661]”, with 8.85 ± 0.35.
The value for “TATAGCTTTCATTATACACACATCAAAAATTTAAAT [CACACA_site227]” was 8.51 ± 0.44.
Turning to “TTAAAAATCATTTAAGAACACACAAATATTTCCATT [CACACA_site8418]”, the “gcPBM binding intensity (ln)” value was 8.58 ± 0.69.
Take “TATATTTATTTTTAATGTACATATTTAAGAAAACTA [XGTACX_site4920]”: the “gcPBM binding intensity (ln)” value amounted to 8.54 ± 0.2.
Regarding “GACTCATTAAGGATTATTCCTAATGATCAAAAGAAC [CACACA_negctrl_site515]”, the “gcPBM binding intensity (ln)” value amounted to 8.54 ± 0.4.
Then “TATATAATTCAAAAATGTACATGAAATATAAATATT [XGTACX_site7984]”, with 8.62 ± 0.28; and “TGATTCTTTTCAAAGTGTACAGTAATTTTTATGTAA [XGTACX_site8452]”, with 8.38 ± 0.11.
Then “AAGTTTTCTTAAAGATGTACTTTTTAAAAATAAAAT [XGTACX_site3063]”, with 8.19 ± 0.3; and “AAATATATTGCATATATACACACGTATATATATTAA [CACACA_site2759]”, with 8.31 ± 0.34; and “ATATCAAGCTATGAGAAAAAAAAAAAGAAAAAAAAA [CACACA_negctrl_site1370]”, with 8.12 ± 0.36.
For the sequence “ATATTATAAATTATAGGTACACACAAAAAAAAAAAG [XGTACX_site2637]”, the “gcPBM binding intensity (ln)” value came to 8.89 ± 0.44.
On to “TTAAATAAAAAAATAACACACATATAAATCTATATG [CACACA_site7482]”, for which the “gcPBM binding intensity (ln)” value came to 8.39 ± 0.33.
Then “GCCATTAATTTATACACACACATTATAACTTTTTAT [CACACA_site6492]”, with 8.93 ± 0.39.
For the sequence “TATCAGCAATGGAAAACATGCAAAAAATTAATATAT [TGCATGCA_site623]”, the “gcPBM binding intensity (ln)” value came out at 8.89 ± 0.42.
Then “TCTTCAAAGACACAATCACACACATACATAAATATA [CACACA_site8128]”, with 8.58 ± 0.54; and “ATCAAAAATGTTATATATATATATATATATATATAT [TGCATGCA_negctrl_site71]”, with 10.2 ± 0.45; and “AATACGTTTCAAAAATGTACACATATATCATAAATA [XGTACX_site8962]”, with 8.505 ± 0.078.
As to “ATTATATTAATTTATAGTACAATATTTATATATATG [XGTACX_site4668]”, the “gcPBM binding intensity (ln)” value came out at 8.35 ± 0.36.
Then “TATATATTACTTTTTTGTACGAATTTTACAACTACG [XGTACX_site3473]”, with 8.88 ± 0.39; and “TATTAAAATATTCTCACACACCAAAATATGTATGTA [CACACA_site6565]”, with 8.13 ± 0.47.
With “AAAAAAAAAAAAAAAAAAAGAAAAGAAAATAGGGTT [GTGCAC_negctrl_site421]”, the “gcPBM binding intensity (ln)” value was 8.56 ± 0.52.
Take “AAAAGACATTTTTTTTTATAAATACACACGTACGTG [TGCATGCA_negctrl_site281]”: the “gcPBM binding intensity (ln)” value came to 8.54 ± 0.52.
Then “AGGAGGAACAAACAAAACAATAAAAATTATAATAAA [GTGCAC_negctrl_site206]”, with 8.79 ± 0.44; and TTCCAAGAAATAATAGTGCATTATTCATTTTAATAA, with 8.62 ± 0.27.
Then “TTCAAAGACACAATCACACACATACATAAATATACA [CACACA_site687]”, with 8.66 ± 0.52.
The value for “AATATACATAACAAGGTGCAAAAAATATTGTTCATA [GTGCAC_site9499]” was 9.19 ± 0.26; that for “TTATTATTATGATTATTATGATGATTATACAACTGT [TGCATGCA_negctrl_site241]” was 8.26 ± 0.42.
In the case of “TATTAATTATAAGATGCATGTGCAAAAATATGTTCC [TGCATGCA_site51]”, the “gcPBM binding intensity (ln)” value came out at 9.01 ± 0.36.
On to “ATAATATTTTATTATACATGCAAATTATTATATATA [TGCATGCA_site40]”, for which the “gcPBM binding intensity (ln)” value is 8.43 ± 0.43.
In the case of “TTTCTTTGTATTTATAGTACATATTTTAATAACTGC [XGTACX_site6673]”, the “gcPBM binding intensity (ln)” value was 8.53 ± 0.42.
Then “TAAAAATTAAAAAGGGTGCAAAAAAAAAAAAAAAAA [GTGCAC_site9733]”, with 8.45 ± 0.18.
The value for “ACAAAATTTACAAAATGTACAAAGTATGTGTTTTAT [XGTACX_site6462]” was 8.39 ± 0.48.
The value for “TTTCCGGTAATATGGAGATATATGTGGGTTTTTTTT [GTGCAC_negctrl_site374]” was 8.41 ± 0.58.
“AGAAAAAAGAGGGATACACACAAACATATATTTATA [CACACA_site7122]”: the “gcPBM binding intensity (ln)” value is 8.81 ± 0.29.
As to “ATATTTTTTTTTTTCACACACATTTATATTGTATTA [CACACA_site5695]”, the “gcPBM binding intensity (ln)” value is 8.81 ± 0.54.
As to “CACCCTTTGTTTTAGAGTACATATGTATATACGTAA [XGTACX_site7964]”, the “gcPBM binding intensity (ln)” value stood at 8.79 ± 0.43.
